From publication PMC4336329 (PLoS ONE, 2015)
Screen size: about 310,000 compounds; about 14,000 (4.5%) showed an effect of 50% or more. The effect is printed as a negative number. Some of the results follow.

molecular target: human ether-à-go-go-related gene (hERG) potassium channel (human, UniProt Q12809); assay: primary screen, population patch clamp on CHO cells stably expressing hERG
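Further: peak tail current of the secondary pulse compared with the same well before compound.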

human ether-à-go-go-related gene (hERG) potassium channel, sequence (Q12809 whole entry, looked up): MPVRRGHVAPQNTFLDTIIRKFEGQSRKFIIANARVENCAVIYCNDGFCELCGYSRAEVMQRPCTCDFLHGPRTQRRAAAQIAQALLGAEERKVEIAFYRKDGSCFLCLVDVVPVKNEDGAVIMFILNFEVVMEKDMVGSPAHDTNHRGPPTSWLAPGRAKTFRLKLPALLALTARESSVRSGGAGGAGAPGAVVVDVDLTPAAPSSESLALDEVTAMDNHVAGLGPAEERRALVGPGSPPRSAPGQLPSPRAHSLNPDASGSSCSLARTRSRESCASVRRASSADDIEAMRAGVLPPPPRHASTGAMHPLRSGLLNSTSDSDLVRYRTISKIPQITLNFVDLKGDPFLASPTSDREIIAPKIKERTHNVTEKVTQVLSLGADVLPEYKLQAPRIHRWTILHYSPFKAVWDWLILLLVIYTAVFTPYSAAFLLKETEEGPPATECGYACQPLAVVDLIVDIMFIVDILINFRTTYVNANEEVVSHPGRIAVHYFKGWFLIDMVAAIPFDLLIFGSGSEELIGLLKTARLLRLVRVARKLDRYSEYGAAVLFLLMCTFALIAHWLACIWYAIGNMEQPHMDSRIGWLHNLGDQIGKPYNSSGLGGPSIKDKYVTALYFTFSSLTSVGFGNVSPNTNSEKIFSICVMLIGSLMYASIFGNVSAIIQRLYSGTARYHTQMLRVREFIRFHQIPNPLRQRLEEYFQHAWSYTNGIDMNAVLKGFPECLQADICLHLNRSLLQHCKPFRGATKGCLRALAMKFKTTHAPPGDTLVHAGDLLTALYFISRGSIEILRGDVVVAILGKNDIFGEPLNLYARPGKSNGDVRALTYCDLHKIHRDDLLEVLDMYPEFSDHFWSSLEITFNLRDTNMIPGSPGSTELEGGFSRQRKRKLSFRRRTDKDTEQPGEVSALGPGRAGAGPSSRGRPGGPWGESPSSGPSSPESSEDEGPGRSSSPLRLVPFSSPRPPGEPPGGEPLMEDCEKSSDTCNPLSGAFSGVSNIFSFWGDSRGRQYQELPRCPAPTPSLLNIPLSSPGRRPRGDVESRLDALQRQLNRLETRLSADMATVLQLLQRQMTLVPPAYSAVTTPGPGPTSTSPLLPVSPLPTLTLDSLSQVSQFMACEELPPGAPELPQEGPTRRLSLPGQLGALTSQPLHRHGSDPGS

Structure (SMILES) | hERG current change (%, negative = inhibition) at 10uM [%]
C=CCn1c(OCc2ccccc2)n[nH]c1=S | 23.8
COc1ccc(C2C3=C(CC(C)(C)CC3=O)Oc3ncn4nc(-c5cccnc5)nc4c32)cc1 (stereo not shown) | -2.59
CCOCC(=O)Nc1ccc([N+](=O)[O-])cc1Cl | -8.53
N#Cc1ccncc1S(=O)c1ccc(Cl)cc1 (stereo not shown) | 11.6
Cc1ccc(-c2nn(-c3ccccc3)cc2/C=C/C(=O)OCC(=O)NC2CC2)o1 | 10.2
CCOC(=O)N1CCC(NC(=O)CCN2C(=O)C3C4C=CC(C4)C3C2=O)CC1 (stereo not shown) | 5.1
[O-]/[N+](=C/c1cccnc1)c1ccc(Br)cc1 | 0.388
O=C(Cc1ccccc1)NCC(=O)N1CCCCC1 | 31.7
Cc1cccc(-c2cccc(NC(=O)C3CCCN(C(=O)c4cccnc4)C3)c2)c1 (stereo not shown) | -47.4
Cc1cc(/C=C(/C#N)c2cccc(F)c2)c(C)n1-c1cccnc1 | -20.3
Cc1ccccc1OCC(=O)NCCCNC(=O)c1cccnc1 | 1.33
CCC1(C)Cc2ccccc2-c2nc(NN)[nH]c(=O)c21 (stereo not shown) | 6.44
CCOC(=O)C1CCN(C(=O)c2cc3ccccc3oc2=O)CC1 | 7.58
CC(C)n1c(SCC(=O)Nc2nc3ccccc3s2)nc2c1c(=O)n(C)c(=O)n2C | 26.8
C=CCNCCOc1ccc(C)cc1[N+](=O)[O-].O=C(O)C(=O)O | -21.7
COc1cccc(CNC(=O)c2nnn(CC(=O)Nc3ccc(Br)cc3)c2N)c1 | 17.5
COc1ccc(CCNC(=O)C2CCC(=O)N2S(=O)(=O)c2ccc(C)cc2)cc1 (stereo not shown) | -3.24
CN1CCN(c2ccc(NC(=O)c3ccc4c(c3)OCO4)cc2)CC1 | -38.3
CC(C)COC(=O)Nc1ccc(C(=O)O)cc1 | 11
CN(CC(=O)Nc1cccc2c1CCCC2)S(=O)(=O)c1ccc(Cl)cc1 | 3.71
O=C(Cn1cnc2sc3c(c2c1=O)CCCC3)NCCCC(=O)N1CCC2(CC1)OCCO2 | -10.5
O=C(CSc1nc2ccccc2c(=O)[nH]1)N1CCOCC1 | -1.11

Structure (SMILES) | hERG current change (%, negative = inhibition) at 10uM [%]
COc1cc(/C=C/C(=O)OCC(=O)NC(=O)NC(C)C)ccc1O | 4.09
CCOC(=O)c1c(NC2=NS(=O)(=O)c3ccccc32)sc2c1CCC(C)C2 (stereo not shown) | 16.1
CCc1ccc(NC(=O)C(=O)N/N=C(\C)CC(=O)Nc2ccc(OC)cc2)cc1 | -6.2
Cc1cccc(/C=N\NC(=O)c2ccc(Cl)cc2)c1O | 37.5
O=[N+]([O-])c1nn(-c2ccc3c(c2)OCCO3)n(O)c1=NCc1ccc(F)cc1 | -23.3
Cc1ccc(Cn2ccc(-c3cnc(-c4ccccc4)s3)n2)cc1 | 21.2
O=C(O)c1ccc(NS(=O)(=O)/C=C/c2ccccc2)cc1 | 15
Cc1ccccc1C(=O)N1CCC(C(=O)OCc2nc(N)nc(Nc3ccccc3)n2)CC1 | -33.6
Cc1ccc(NC(=O)C(NC2CCCC2)c2ccccc2)cc1Cl (stereo not shown) | -6.03
COc1ccc(NS(=O)(=O)c2cc(NC(=O)c3cccs3)ccc2N2CCCC2)cc1 | -0.683
CCN(CC)S(=O)(=O)c1ccc(C(=O)Nc2ccc(C(F)(F)F)n(C)c2=O)cc1 | 25.4
O=C(COC(=O)c1cncc(Br)c1)Nc1nc(-c2ccc(F)cc2)cs1 | 1.26
CCc1ccc2[nH]c3nc(SCc4nnc(-c5ccc(C)cc5)o4)nnc3c2c1 | 8.91
CC(=O)Nc1cccc(C(=O)Nc2ccc(S(=O)(=O)NC3=NCCCCC3)cc2)c1 | 17
Cc1ccc(NNC(=O)c2cc(C)on2)c(C)c1 | 4.13
CC1=CC(=O)C2=C(C)C[C@H](O)[C@@H]3[C@H](OC(=O)[C@H]3C)[C@@H]12.O | 11
Nc1ccccc1SCc1cn2ccccc2n1 | -47.3
CC1=C(C#N)C(C(F)(F)F)(C(F)(F)F)N=C(c2ccco2)N1 | 4.05
COc1ccc(-c2nc(-c3ccccc3)nc(Cl)c2C#N)cc1 | 8.56
CC1(C)CC(=O)C2=C(C1)Oc1ncn(Cc3ccco3)c(=N)c1C2c1ccccc1 (stereo not shown) | -60.8
CC(C)n1c(NCc2ccc(Cl)cc2)nc2ccccc21 | -1.78
